Laboratory results published in publication PMC6919601, “Identification of Plasmodium dipeptidyl aminopeptidase allosteric inhibitors by high throughput screening” (PLoS ONE, 2019).
Out of some 110,000 compounds screened, about 230 (0.21%) showed an effect of 50% or more. The list shows a part of the results.

Target: DPAP1 (Plasmodium falciparum, UniProt Q8IIJ9)
Assay: primary screen, percent inhibition; read by cleavage of a fluorogenic dipeptide substrate; higher = more effect of the substance
Design: species or system P. falciparum D10 trophozoite lysates; single well
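Further: 30 min substrate incubation versus DMSO and 10 µM JCP410 controls.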

Chain of DPAP1 (Q8IIJ9 whole entry, looked up): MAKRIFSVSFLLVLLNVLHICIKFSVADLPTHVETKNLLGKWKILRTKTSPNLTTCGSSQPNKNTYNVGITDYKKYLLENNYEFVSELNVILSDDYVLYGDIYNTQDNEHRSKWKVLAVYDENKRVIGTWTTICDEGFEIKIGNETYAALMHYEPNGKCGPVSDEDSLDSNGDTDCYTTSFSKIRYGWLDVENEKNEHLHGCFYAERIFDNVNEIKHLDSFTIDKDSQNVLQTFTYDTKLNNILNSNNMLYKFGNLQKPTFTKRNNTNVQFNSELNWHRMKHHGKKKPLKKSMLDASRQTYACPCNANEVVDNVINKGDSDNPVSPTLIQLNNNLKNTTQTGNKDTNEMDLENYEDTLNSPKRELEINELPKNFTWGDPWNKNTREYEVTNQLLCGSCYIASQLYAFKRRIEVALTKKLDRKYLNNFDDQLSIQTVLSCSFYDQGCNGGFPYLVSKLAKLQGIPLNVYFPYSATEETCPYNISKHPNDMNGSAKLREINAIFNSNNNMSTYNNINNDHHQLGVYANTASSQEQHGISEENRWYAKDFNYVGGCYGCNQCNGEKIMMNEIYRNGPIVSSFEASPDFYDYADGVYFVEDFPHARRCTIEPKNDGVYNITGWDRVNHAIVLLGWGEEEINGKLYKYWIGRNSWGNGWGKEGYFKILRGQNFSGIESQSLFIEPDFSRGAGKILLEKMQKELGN

| Compound | % Inhibition @ 10 uM [%] |
| --- | --- |
| O=C(Nc1ccc(Br)cc1)c1cc(S(=O)(=O)Nc2ccccn2)ccc1Cl | -0.0217 |
| c1ccc(CCN2CCC(NCC3CCCO3)CC2)cc1 (centres unmarked) | -5.11 |
| Cc1ccc(-c2cc(C(F)(F)F)c3c(N)c(C(N)=O)sc3n2)cc1 | 33.4 |
| COc1ccc(/C=C2\N=c3ccn(Cc4ccccc4)c(=O)c3=C2O)cc1 | 4.74 |
| Cc1ccsc1C(=O)N1CCCc2ccccc21 | 5.53 |
| Cc1scc(CN2CCc3ccccc3C2)c1C | -0.999 |
| Brc1ccc(CN2CCN(Cc3ccncc3)CC2)cc1 | 4 |
| Cc1ccc2c(c1)C(=O)OC(C(=O)Nc1cc(C)on1)C2 (centres unmarked) | -1.52 |
| O=C(CN1CCCC1)Nc1c2c(nc3c1CCC3)CCCC2 | 1.54 |
| COc1ccccc1S(=O)(=O)Cc1ccc(C(=O)NCc2ccccc2)o1 | -1.28 |
| CC(C)OP(=O)(CN1CCOCC1)OC(C)C | -4.61 |
| O=C1C=C(Nc2cc(Cl)cc(Cl)c2)CC(c2ccco2)C1 (centres unmarked) | -5.72 |
| CCOc1ccccc1NC(=O)c1ccc(COc2ccccc2OC)cc1 | 2.44 |
| Cc1ccc(CNc2nc3c(c(=O)[nH]c(=O)n3C)n2CC(O)CO)cc1 (centres unmarked) | 3.66 |
| COC(=O)c1cc(-c2ccc(C=C3C(=O)OC(C)(C)OC3=O)o2)ccc1Cl | -1.6 |
| Cc1cc(OCC(=O)Nc2cccc3c2CCCC3)ccc1Br | 1.04 |
| CCN1CCN(CCNC(=O)C2CCCN(Cc3nc(-c4cccc(Cl)c4)oc3C)C2)CC1 (centres unmarked) | -2.85 |
| COCC(=O)n1nc(-c2ccc(Cl)cc2)nc1NCc1ccco1 | -1.11 |
| Cc1cccc(CN2CCN(Cc3cccnc3)CC2)c1 | -6.74 |
| CC(C)CC(C(=O)NCC#N)c1cccc(-c2cccc(-c3csc(N=C(N)N)n3)c2)c1 (centres unmarked) | -3.04 |
| COc1ccc(N(CC(=O)N(C)C)S(=O)(=O)c2ccc(C)cc2)cc1Cl | -5.26 |
| CN(C)CCNC(=O)C1CCCN(S(=O)(=O)N2CCOCC2)C1 (centres unmarked) | 1.17 |
| N#CCNC(=O)C(CC1CCCCC1)C(=O)Nc1ccc(Oc2ccccc2)cc1 (centres unmarked) | -1.83 |
| COC(=O)c1ccc(C2c3c(oc4ccccc4c3=O)C(=O)N2c2nc(C)c(C)s2)cc1 (centres unmarked) | 2.16 |
| O=C(COc1ccc(Cl)cc1)Nc1ccc(NC(=O)COc2ccc(Cl)cc2)cc1 | -1.32 |

| Compound | % Inhibition @ 10 uM [%] |
| --- | --- |
| CN1CCN(C(=O)c2cccc(Cl)c2)CC1 | -3.82 |
| COc1ccc(C2=NOC(C(=O)N3CC4(C)CC3CC(C)(C)C4)C2)cc1OC (centres unmarked) | -0.644 |
| Cc1ccc(-c2cc(C(=O)Nc3cccnc3)c3ccccc3n2)s1 | 1.08 |
| Fc1ccc([C@@H]2Nc3c(F)cccc3[C@@H]3C=CC[C@@H]32)cc1 | -3.19 |
| CCN(CC)C(=O)Oc1cc(=O)n2c3c(cccc13)CCC2 | 1.67 |
| Cc1cccc(C)c1NC(=O)c1ccco1 | -0.294 |
| O=C(NCCCN1CCOCC1)C1(c2ccccc2)CCOCC1 | 1.15 |
| COc1ccc(CNc2nc(-c3ccco3)nn2C(=O)c2cc(OC)c(OC)c(OC)c2)cc1 | 0.248 |
| COc1cc(C(=O)NCCOc2cc(C)cc(C)c2)c(Br)c(OC)c1OC | -1.26 |
| Cc1cccc(NC(=O)c2ccccc2Cl)c1C | -5.11 |
| COc1ccc(-c2ccc(CCC(=O)O)o2)cc1 | 4.74 |
| Clc1ccc(-n2ncc3c(N4CCCCCC4)ncnc32)cc1 | 2.07 |
| CC(=O)N1CCN(Cc2cc(=O)oc3cc(C)ccc23)CC1 | 2.29 |
| O=C(Nc1ccc(NC(=O)C2CC3CCC2C3)cc1)C1CC2CCC1C2 (centres unmarked) | -5.23 |
| O=C1c2ccccc2CN1CCSC(=S)N1CCCC1 | 0.108 |
| O=C(O)c1ccc(-n2[nH]c(=O)ccc2=O)cc1 | -0.902 |
| Cc1ccc(NS(=O)(=O)c2ccc(NC(=O)c3ccccc3C(=O)O)cc2)cc1C | 2.3 |
| CC1(C)C[C@@H](O)CC2(C1)C[C@]1(C)CC(O)[C@H]2C(C)(C)C1 (some centres unmarked) | -1.44 |
| COCCNc1nc2c(S(=O)(=O)c3cc(C)ccc3C)nnn2c2ccsc12 | 0.857 |
| CC1=C(C(=O)NCCN2CCN(C)CC2)C2(CCCCC2)OC1=O | 4.2 |
| CC1(C)CC(=O)c2cnc(NC(=O)CSc3ccc(Cl)cc3)nc2C1 | -1.18 |
| Cc1ccc(CN2c3ccsc3C(O)=C(/C=N/C(C)C)S2(=O)=O)cc1 | 0.711 |
| CC(C)(O)C#Cc1ccc(C2C3=C(CC(C)(C)CC3=O)OC3=C2C(=O)CC(C)(C)C3)cc1 | 1.96 |
| CCOc1ccccc1N1CCN(C(=O)c2cccc(Br)c2)CC1 | -1.79 |
| NC(=O)CCCc1c[nH]c2ccccc12 | 3.34 |
